Drawing on the supplement of paper PMC4604168 (melanoma cell lines), this text covers cell count for 32 compounds.

The list shows a part of the results. Many values rest on one well or one pass, so single values are uncertain.
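Note: cells treated in 1,536-well plates, then fixed and DAPI-stained, with nuclei counted from automated high-throughput microscope images.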

The subject of this experiment is C32. Put plainly: cell count relative to DMSO control; melanoma cells; higher = more viable cells. The note with it: library dose: standard library concentration; 72 h.
Turning to `CN(c1ncccc1CNc1nc(Nc2ccc3c(c2)CC(=O)N3)ncc1C(F)(F)F)S(C)(=O)=O` + O=C1NC(=O)/C(=C/c2ccc(-c3ccc(F)cc3O)o2)S1 [AS252424] (first compound 0.4 µM, partner dose 5 µM), the cell count came to 86%. The same measure for `C=C(c1ccc(C(=O)O)cc1)c1cc2c(cc1C)C(C)(C)CCC2(C)C` [Bexarotene] + CCN(CC)CCCCNc1ncc2cc(-c3cc(OC)cc(OC)c3)c(NC(=O)NC(C)(C)C)nc2n1 [PD173074] (first compound 10 µM, partner dose 0.5 µM): 116%; for `NC1(c2ccc(-c3nc4ccn5c(=O)[nH]nc5c4cc3-c3ccccc3)cc2)CCC1` + CC(C)CCN1c2nc(Nc3cc(F)c(O)c(F)c3)ncc2N(C)C(=O)C1C [BID1870] (first compound 2 µM, partner dose 1 µM): 92.3%. For the compound `C=C(c1ccc(C(=O)O)cc1)c1cc2c(cc1C)C(C)(C)CCC2(C)C` [Bexarotene] + Cn1c(Nc2ccc(C(F)(F)F)cc2)nc2cc(Oc3ccnc(-c4ncc(C(F)(F)F)[nH]4)c3)ccc21 [CHIR265] (first compound 10 µM, partner dose 0.4 µM), the cell count was 54.9%.

As for `C=C(c1ccc(C(=O)O)cc1)c1cc2c(cc1C)C(C)(C)CCC2(C)C` [Bexarotene] + O=S(=O)(c1ccccc1)N(CC(F)(F)F)c1ccc(C(O)(C(F)(F)F)C(F)(F)F)cc1 [T0901317] (first compound 10 µM, partner dose 7 µM), the cell count was 103%. The same measure for `CS(=O)(=O)c1ccc(C(=O)Nc2ccc(Cl)c(-c3ccccn3)c2)c(Cl)c1` [vismodegib] + O=C(Nc1ccccc1)c1cc([N+](=O)[O-])ccc1Cl [GW9662] (first compound 5 µM, partner dose 10 µM): 123%. The same measure for `C=C(c1ccc(C(=O)O)cc1)c1cc2c(cc1C)C(C)(C)CCC2(C)C` [Bexarotene] + CC(C)(C)c1cnc(CSc2cnc(NC(=O)C3CCNCC3)s2)o1 [SNS-032] (first compound 10 µM, partner dose 0.05 µM): 132%; for `C=C(c1ccc(C(=O)O)cc1)c1cc2c(cc1C)C(C)(C)CCC2(C)C` [Bexarotene] + CC(C)CCN1c2nc(Nc3cc(F)c(O)c(F)c3)ncc2N(C)C(=O)C1C [BID1870] (first compound 10 µM, partner dose 1 µM): 99%; for `NC1(c2ccc(-c3nc4ccn5c(=O)[nH]nc5c4cc3-c3ccccc3)cc2)CCC1` + COc1ccc(COc2ccc(Cc3cnc(N)nc3N)cc2OC)cc1 [GW2580] (first compound 2 µM, partner dose 5 µM): 77.9%.

In turn, `CS(=O)(=O)c1ccc(C(=O)Nc2ccc(Cl)c(-c3ccccn3)c2)c(Cl)c1` [vismodegib] + O=C(O)[C@@H]1[O][Sb](=[O])([O][Sb]2(=[O])[O][C@H]([C@H](O)CO)[C@H](O)[C@H](C(=O)O)[O]2)[O][C@H]([C@H](O)CO)[C@@H]1O [stibogluconate] (first compound 5 µM, partner dose 10 µM) gave a cell count of 130%. On to `CS(=O)(=O)c1ccc(C(=O)Nc2ccc(Cl)c(-c3ccccn3)c2)c(Cl)c1` [vismodegib] + Oc1nc(-c2ccc(C(F)(F)F)cc2)nc2c1CSCC2 [XAV939] (first compound 5 µM, partner dose 10 µM), for which the cell count worked out at 108%. In the case of `CCCS(=O)(=O)Nc1ccc(F)c(C(=O)c2c[nH]c3ncc(Cl)cc23)c1F` + CC(C)(C)c1cnc(CSc2cnc(NC(=O)C3CCNCC3)s2)o1 [SNS-032] (first compound 0.4 µM, partner dose 0.05 µM) it was 70.2%; in that of `CN(c1ncccc1CNc1nc(Nc2ccc3c(c2)CC(=O)N3)ncc1C(F)(F)F)S(C)(=O)=O` + Cn1c(=O)n(-c2ccc(C(C)(C)C#N)cc2)c2c3cc(-c4cnc5ccccc5c4)ccc3ncc21 [NVP-BEZ235] (first compound 0.4 µM, partner dose 0.02 µM), 76.1%; in that of `NC1(c2ccc(-c3nc4ccn5c(=O)[nH]nc5c4cc3-c3ccccc3)cc2)CCC1` + NC(=O)Nc1cc(-c2cccc(F)c2)sc1C(=O)N[C@H]1CCCNC1 [AZD7762] (first compound 2 µM, partner dose 0.1 µM), 66.7%. The same measure for `NC1(c2ccc(-c3nc4ccn5c(=O)[nH]nc5c4cc3-c3ccccc3)cc2)CCC1` + O=C(Nc1ccccc1)c1cc([N+](=O)[O-])ccc1Cl [GW9662] (first compound 2 µM, partner dose 10 µM): 90.7%; for `C=C(c1ccc(C(=O)O)cc1)c1cc2c(cc1C)C(C)(C)CCC2(C)C` [Bexarotene] + O=C(CCCCCCC(=O)Nc1ccccc1)NO [vorinostat] (first compound 10 µM, partner dose 0.4 µM): 114%.

For `CCCS(=O)(=O)Nc1ccc(F)c(C(=O)c2c[nH]c3ncc(Cl)cc23)c1F` + O=C1NC(=O)/C(=C/c2ccc(-c3ccc(F)cc3O)o2)S1 [AS252424] (first compound 0.4 µM, partner dose 5 µM), the cell count was 76.1%. For `NC1(c2ccc(-c3nc4ccn5c(=O)[nH]nc5c4cc3-c3ccccc3)cc2)CCC1` + O=C(O)C(=O)Nc1sc2c(c1C(=O)O)CCNC2 [TCS401] (first compound 2 µM, partner dose 8.33333 µM), the cell count was 90.7%. The same measure for `CN(c1ncccc1CNc1nc(Nc2ccc3c(c2)CC(=O)N3)ncc1C(F)(F)F)S(C)(=O)=O` + CC(=O)c1c(C)c2cnc(Nc3ccc(N4CCNCC4)cn3)nc2n(C2CCCC2)c1=O [palbociclib] (first compound 0.4 µM, partner dose 0.2 µM): 65%; for `C=C(c1ccc(C(=O)O)cc1)c1cc2c(cc1C)C(C)(C)CCC2(C)C` [Bexarotene] + CCCCCCCCCCCC1=C(O)C(=O)C=C(O)C1=O [Embelin] (first compound 10 µM, partner dose 6 µM): 95.6%. The compound `CN(c1ncccc1CNc1nc(Nc2ccc3c(c2)CC(=O)N3)ncc1C(F)(F)F)S(C)(=O)=O` + COc1ccc(-c2ccc3c(N4CCOCC4)nc(N4C[C@@H](C)O[C@@H](C)C4)nc3n2)cc1CO [KU0063794] (first compound 0.4 µM, partner dose 0.1 µM) showed a cell count of 75.5%. In the case of `CN(c1ncccc1CNc1nc(Nc2ccc3c(c2)CC(=O)N3)ncc1C(F)(F)F)S(C)(=O)=O` + COC(=O)c1sccc1S(=O)(=O)Nc1ccc(Nc2ccccc2)cc1OC [GSK0660] (first compound 0.4 µM, partner dose 5 µM) it was 71.1%.

For `NC1(c2ccc(-c3nc4ccn5c(=O)[nH]nc5c4cc3-c3ccccc3)cc2)CCC1` + O=c1cc(-c2cccc3c2Sc2ccccc2S3)oc(N2CCOCC2)c1 [KU55933] (first compound 2 µM, partner dose 5 µM), the cell count is 85.1%. The same measure for `CN(c1ncccc1CNc1nc(Nc2ccc3c(c2)CC(=O)N3)ncc1C(F)(F)F)S(C)(=O)=O` + CCCCCCCCCCCC1=C(O)C(=O)C=C(O)C1=O [Embelin] (first compound 0.4 µM, partner dose 6 µM): 84.1%; for `CN(c1ncccc1CNc1nc(Nc2ccc3c(c2)CC(=O)N3)ncc1C(F)(F)F)S(C)(=O)=O` + COc1cc2ncnc(Nc3ccc(Oc4ccccc4)cc3)c2cc1OC [SrcI1] (first compound 0.4 µM, partner dose 10 µM): 96.7%; for `CS(=O)(=O)c1ccc(C(=O)Nc2ccc(Cl)c(-c3ccccn3)c2)c(Cl)c1` [vismodegib] + CCN(CC)CCCCNc1ncc2cc(-c3cc(OC)cc(OC)c3)c(NC(=O)NC(C)(C)C)nc2n1 [PD173074] (first compound 5 µM, partner dose 0.5 µM): 110%. The same measure for `C=C(c1ccc(C(=O)O)cc1)c1cc2c(cc1C)C(C)(C)CCC2(C)C` [Bexarotene] + Cn1nnc2c(C(N)=O)ncn2c1=O [temozolomide] (first compound 10 µM, partner dose 10 µM): 95.7%; for `NC1(c2ccc(-c3nc4ccn5c(=O)[nH]nc5c4cc3-c3ccccc3)cc2)CCC1` + CCN(CC)CCCCNc1ncc2cc(-c3cc(OC)cc(OC)c3)c(NC(=O)NC(C)(C)C)nc2n1 [PD173074] (first compound 2 µM, partner dose 0.5 µM): 89.5%. In the case of `CN(c1ncccc1CNc1nc(Nc2ccc3c(c2)CC(=O)N3)ncc1C(F)(F)F)S(C)(=O)=O` + O=C(O)C(=O)Nc1sc2c(c1C(=O)O)CCNC2 [TCS401] (first compound 0.4 µM, partner dose 8.33333 µM) it was 61.6%. `CN(c1ncccc1CNc1nc(Nc2ccc3c(c2)CC(=O)N3)ncc1C(F)(F)F)S(C)(=O)=O` + COc1ccc(COc2ccc(Cc3cnc(N)nc3N)cc2OC)cc1 [GW2580] (first compound 0.4 µM, partner dose 5 µM) yielded a cell count of 84.5%. The same measure for `CN(c1ncccc1CNc1nc(Nc2ccc3c(c2)CC(=O)N3)ncc1C(F)(F)F)S(C)(=O)=O` + CCN(CC)CCCCNc1ncc2cc(-c3cc(OC)cc(OC)c3)c(NC(=O)NC(C)(C)C)nc2n1 [PD173074] (first compound 0.4 µM, partner dose 0.5 µM): 67.6%; for `NC1(c2ccc(-c3nc4ccn5c(=O)[nH]nc5c4cc3-c3ccccc3)cc2)CCC1` + c1cc(-c2cnn3cc(-c4ccc(OCCN5CCCCC5)cc4)cnc23)ccn1 [Dorsomorphin] (first compound 2 µM, partner dose 2 µM): 53.4%.
